The text below walks through data of the RNAGym collection of RNA variant scans (doi:10.7554/elife.90254).

The source gives no read counts; variants with many changes may rest on few reads.

The chains are these.
B1: OR4K15 (parent)
chain: GUUAACGGUCAUAGGCCAUGGAAACUAGGAGCACCAUUUCGCUGCCAGUGAAGAAAUGAACAAAGAAAAUCUGGGCCAGGCAGGCAUCAAAAGAAAUAGUCUUGCGCUCAACCAGAAAGUCUGUAAUCAUUUUAAGGGUA

The variants in the series derive from B1. Briefly: self-cleavage, relative activity (ratio to wild type); higher = more cleavage; in vitro, sequencing; the parent is a self-cleaving ribozyme.
Consider A36G A60G A118G, for which the self-cleavage came to 1.12. For the variant A36U U120C A135G, the self-cleavage was found to be 1.25. Under U37C A64G U100C stands 2.11; under U37C A66G A116G A126G, 0.57. A36G U39C A116C: the self-cleavage came to 0.18. Under A36G U57C A68G U87C A126G stands 0.64; under U37C A66G A116G, 0.53. Under U37C A52G A98G A114U U122C stands 0.01. Under U37C A89G A95G U103A A117G stands 1.29; under U37C C109A A116G, 0.25. As for U37C A82G C113U, the self-cleavage is 0.05. Regarding U37A A47U A52G, the self-cleavage worked out at 0.92. Under A36U U49C A126G U139C stands 0.81; under U37C A67G A110U, 1.54; under U38A A52G A67U U108A, 0.03. In the case of U38C A47G A98U A129G it was 1.31. Consider U37C A52G U130C, for which the self-cleavage worked out at 0.88. Under U37C A78G A134U stands 0.08; under A36U A69G A78G, 0.15.

As for U38C A52G U57C, the self-cleavage is 0.55. Under U37C A64C U133C stands 0.89. Under U38A U43C U49G stands 1.35; under U38C A52G A69U A94G, 2.07. Under U37C A51G A116G stands 0.68; under U38A U70C A92G A94G, 0.58; under A36G G58A A90G A96G U102C A117G, 1.05.

For A36G A82U U108C, the self-cleavage amounted to 0.02. Consider U38A A60G U130C U131C, for which the self-cleavage worked out at 1.17. For the variant U37C U43C U70C A92G A118G A126C, the self-cleavage turned out to be 0.

With U37C A86U U131C, the self-cleavage came out at 2.15.

Turning to U38A U103A U108A, the self-cleavage amounted to 0.02. In the case of U37C G75A A98U it was 0.07; in that of U38C A51G A54G U102C, 1.93; in that of U37C A60G A68G A118U, 0.38. As for A36G U57C A94G A125G A135G, the self-cleavage was determined as 0.24. Under U37C A54G U87C stands 0.93; under A36U U49C G136A, 2.07. Take A36U A95G U120C: the self-cleavage amounted to 1.18. For U37C A98U A111G, the self-cleavage is 0.04. In the case of C35A A78G A135G it was 0.24; in that of U37C A59G U103C, 0.55; in that of U37C U97A A111G U124C, 0. Under U37C A69G A94G stands 1.58; under A36G A96G C109U A134G A140U, 0.43. Under U37C A68G A126G stands 0.98. On to U37C U70C U87C U102A, for which the self-cleavage is 0.42. Regarding U37C A52G G73A A91G, the self-cleavage was 0.06. With U37C U38C A56G U57C A89G U103C, the self-cleavage worked out at 0.43. In the case of U37C C71G A91G it was 0.12. Under A36G A51G A116G stands 0.72. In the case of A36C A86G A116G it was 1.34; in that of A36U U49C U127A, 2.11; in that of U38C A51U A55G U100A C105U, 0.05. Consider A36G A91G A126G, for which the self-cleavage stood at 1.05.

For the variant U37C A54G A68U G73U, the self-cleavage was 0.03. Consider U37C U49C A54G A86G, for which the self-cleavage is 1.28.

In the case of A36G A96G A117U A125G, the self-cleavage was determined as 0.67. In the case of U37C A59G A67G it was 1.54; in that of C35A U49C C105U, 0.08; in that of C35A A36U A60G A114U, 0.02.

Turning to A36G A51U A91G, the self-cleavage is 0.85. For U37A U38C A66G, the self-cleavage is 2.09.

In the case of U37A A114G U130C, the self-cleavage came out at 0.18. Under A36U A47G A51U G73A C85A A111G A125G A135G stands 0.01. Under U37C A94G U102A stands 0.68. For A36G A68U G80A A135U, the self-cleavage was found to be 0.31. In the case of U37A U49C U100A it was 0.48. Turning to A36U U37C A54U, the self-cleavage came to 1.7.

For the variant U37C A47G A63G, the self-cleavage was found to be 1. In the case of U38A A51G U97C U120A it was 0.09.

In the case of U38C A47G A68G C81U A118G U127C A140G, the self-cleavage is 0.01. In the case of U37C U122C U131C it was 0.98; in that of A36U A51G A111G, 0.01. Take A36U U49C A55U G106A: the self-cleavage came out at 0.02.

Turning to U37C U72C A89G, the self-cleavage was determined as 0.32. On to A36G U57A G80A A116G U120A, for which the self-cleavage was 0.06. In the case of U37C A90G A118G it was 0.34; in that of U38A A78G U100A, 0.09; in that of U37C A62G G74A G79U A92G, 0.16. As to A36U A62G U108C, the self-cleavage was determined as 0.03. For the variant U37C A62G C76G G80A C128A, the self-cleavage stood at 0.12. In the case of A36G A67G A82G it was 0.64; in that of U37C A69G U120C, 0.21; in that of U37C U72A A118G, 0.1. Under U38C A47U A86G stands 1.21; under U37C A78C U132C, 0.24. Under U38C A47G A66G U120C stands 0.93. Turning to U37C U49C A59G U72A, the self-cleavage worked out at 0.16. Take U38A U49C A89G A92G: the self-cleavage is 1.24. Under U37C G41A A52U G73A G83U stands 0.35; under A36G A47U U100C, 0.73. As to A36U U38C U49A U120C, the self-cleavage was 0.46.

As for U38A A52G C76U A90G, the self-cleavage came out at 0.38. Under A36U A47G A118U stands 0.5; under C35U A68G U72C U108C A126G, 0; under A36G A62G A86G U122A, 2.09. U37C U38C A51G A62G U122A: the self-cleavage stood at 1.8. In the case of U37C A51G A64G A111U it was 0.14; in that of A36G A52G A60U A67G, 1.53; in that of U37G A62G A68G A91G, 1.12. Regarding U37C G53U U108C U120C U131C, the self-cleavage was found to be 0. In the case of U37C A55G A66G U87C U102C it was 0.76; in that of A36G G44A A95G A111G A140G, 0.01; in that of U38A A52G A60G A82U A94G A96G A117G, 0.21. In the case of U38C A52G A134G it was 0.96; in that of U37C A59G A64G, 2.22; in that of U37C A55G A78G, 0.32. Under A36U U49C A56G stands 0.97; under U38C A51G U87A, 1.64. For C34U U39A A82G A96G, the self-cleavage turned out to be 0.36. In the case of U37C A62G U72C A95G it was 0.05; in that of A36U A51U A62G A98U, 1.28; in that of U37C U49C A68G, 2.13. Under U37C G50U A110G U122C U131C stands 0.1; under A36G A47G A95C, 0.59.

For U37G A91G U100C U102A U103C, the self-cleavage is 0.4. Under U37C G48A A60U A92G A114G stands 0.42; under U37C U38C A55G A86G, 1.95; under A36G A64G A78G, 0.36. Under A36G U39C U100C stands 0.78; under A36U U37A U43A A60G, 1.11.

For the variant A36U A94G U100C, the self-cleavage turned out to be 2.28. As to A36U A67G G84A A96U, the self-cleavage stood at 2.2. In the case of A36U U39C A62G it was 0.97. In the case of U37C A64U U87C A114G it was 0.4; in that of U38C A52G A98G A118U, 0.28. In the case of A36C A47U A67U A78U it was 0.51; in that of A36U U38C U43C A126G, 1.18. With U38C A51G U124C, the self-cleavage is 1.31. For the variant A36G U39C A67G A69G G74A, the self-cleavage worked out at 0.88.

With A36G U37C C105U, the self-cleavage is 0.31. Turning to A36G A96G A134C, the self-cleavage was 2.45.

For U38A A125G A126G, the self-cleavage was 0.29. Under U37C A60G U87C stands 0.39; under U37C U49C U122A U131C, 0.86. In the case of U37C U108C A110G U132A it was 0.01; in that of U37C U43A A54G U122A, 1.92; in that of C35U A47U A59G U103C U122C, 0.12.

U37C A68C A95G: the self-cleavage came out at 2.52. Under A36C U37C U87C C121A U132C stands 2.78. In the case of C35G U72A U131C A135G it was 0.02; in that of U37C U108C A126G, 0; in that of U37C A90G U108G U120C, 0.

Consider A36G U70C U130C, for which the self-cleavage came to 0.14. In the case of U37C C61U A68G it was 2.66; in that of A36U U43A A64G U102C A116G, 1.98; in that of U37C A64G U120C, 1.82. In the case of U38C A51G U57C A86G A96G it was 1.06. In the case of U37C A64G A92G U122C it was 0.82; in that of A36G A51G A62G A68G A98G, 0.61; in that of U37C A47U U49A U120A, 0.88. As to U37C A51G A64G A82G U103G, the self-cleavage was found to be 0. In the case of U37C G58A U102C U108C U124C, the self-cleavage worked out at 0.01. U37C A89G A114G: the self-cleavage came out at 0.85. In the case of U38C A52G A66G it was 1.09; in that of C35A A55U A114G, 0.32; in that of U37C U87C A110G, 0.05. In the case of A36G A56G A68G A140G it was 1.79; in that of A36U A94G U130C, 1.34; in that of A36U A90G A98G U127C, 0.35. In the case of A36C A56G G79U it was 0.09.

Consider A36U U43A A47G U103C U108C, for which the self-cleavage worked out at 0.02.

Turning to C35U U87C A110G, the self-cleavage was 0.09.

As for A36G A78U A92G U103C U130C, the self-cleavage is 0.03.

U37C A59G A66U U122A U132A U139C: the self-cleavage amounted to 1.03. In the case of A36U G75C U122C U133C it was 0.13; in that of U37A A51C A62G A96G U130C, 0.24.
